According to article PMC4336329 (PLoS ONE, 2015):
About 14,000 (4.5%) of roughly 310,000 compounds showed an effect of 50% or more. The effect is printed as a negative number. This is one part of the list.

target: human ether-à-go-go-related gene (hERG) potassium channel (human, UniProt Q12809); experiment: primary screen, population patch clamp on CHO cells stably expressing hERG
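Further: peak tail current of the secondary pulse compared with the same well before compound.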

Chain of human ether-à-go-go-related gene (hERG) potassium channel (Q12809 whole entry, looked up): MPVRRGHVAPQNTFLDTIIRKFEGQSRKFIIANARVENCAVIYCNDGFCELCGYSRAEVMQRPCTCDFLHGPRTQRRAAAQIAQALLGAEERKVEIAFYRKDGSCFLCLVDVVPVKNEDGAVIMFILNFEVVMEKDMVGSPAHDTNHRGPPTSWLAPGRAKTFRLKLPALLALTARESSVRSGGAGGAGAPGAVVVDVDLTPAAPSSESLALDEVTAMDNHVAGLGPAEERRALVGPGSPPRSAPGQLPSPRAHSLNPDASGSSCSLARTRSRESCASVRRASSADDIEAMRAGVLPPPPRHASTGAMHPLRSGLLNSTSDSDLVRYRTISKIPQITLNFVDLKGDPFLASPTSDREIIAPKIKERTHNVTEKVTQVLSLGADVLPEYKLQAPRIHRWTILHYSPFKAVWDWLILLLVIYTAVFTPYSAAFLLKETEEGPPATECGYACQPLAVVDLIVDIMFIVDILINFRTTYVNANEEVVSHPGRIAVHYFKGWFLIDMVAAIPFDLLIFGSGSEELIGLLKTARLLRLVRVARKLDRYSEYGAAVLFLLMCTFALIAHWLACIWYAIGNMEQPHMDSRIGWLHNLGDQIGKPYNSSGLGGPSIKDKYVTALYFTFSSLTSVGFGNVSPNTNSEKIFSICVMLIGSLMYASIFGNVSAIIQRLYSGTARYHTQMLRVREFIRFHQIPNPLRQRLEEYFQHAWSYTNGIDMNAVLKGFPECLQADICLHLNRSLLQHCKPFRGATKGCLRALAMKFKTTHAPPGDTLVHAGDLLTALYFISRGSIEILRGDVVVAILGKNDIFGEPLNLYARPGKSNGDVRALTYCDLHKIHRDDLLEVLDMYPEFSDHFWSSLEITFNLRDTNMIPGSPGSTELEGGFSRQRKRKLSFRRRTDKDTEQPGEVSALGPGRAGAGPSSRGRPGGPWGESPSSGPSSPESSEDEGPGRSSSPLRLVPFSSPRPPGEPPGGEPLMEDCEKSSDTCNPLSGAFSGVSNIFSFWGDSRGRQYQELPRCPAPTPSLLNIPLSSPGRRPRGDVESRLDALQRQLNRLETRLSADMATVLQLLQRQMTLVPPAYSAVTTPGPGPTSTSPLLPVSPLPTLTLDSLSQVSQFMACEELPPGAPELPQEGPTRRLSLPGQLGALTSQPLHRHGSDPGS

Row | SMILES | hERG current change (%, negative = inhibition) at 10uM [%]
1 | CCOc1ccc2nc(SCC(=O)N(C)C)[nH]c2c1 | 11.4
2 | Cc1nn(C)cc1CNC(=O)C1(C)CC1(Cl)Cl (centres unmarked) | 19.6
3 | COc1ccc(CCNS(=O)(=O)c2ccccc2)cc1OC | 10.6
4 | COc1ccc(CCN2C(=O)C3C4CC(C5C(C(N)=O)=NOC45)C3C2=O)cc1OC (centres unmarked) | -2.12
5 | COc1ccc(CCn2c(=N)c(C(=O)NC3CCCC3)cc3c(=O)n4ccccc4nc32)cc1OC | -79.2
6 | CS(=O)(=O)C1=C(O)C(=O)N(CCCC(=O)O)C1c1ccccc1F (centres unmarked) | 10.7
7 | CC(=O)Nc1ccc(S(=O)(=O)NC(CC(=O)NCCCN2CCOCC2)C(C)C)cc1 (centres unmarked) | 3.74
8 | Cc1ccc(S(=O)(=O)N(Cc2cccnc2)Cc2cc3ccccc3[nH]c2=O)cc1 | -19.5
9 | O=C(NCc1ccccc1)C(c1ccc(Cl)cc1)N(C(=O)c1csnn1)C1CC1 (centres unmarked) | 1.5
10 | O=C(CSc1ccccc1C(=O)O)NCc1ccc(Cl)cc1 | -8.22
11 | O=C(CSc1ccc(Cl)cc1)Nn1cnnc1 | 3.38
12 | Cc1ccc(CC(NC(=O)c2ccccc2)C(=O)NC(C)C(=O)O)cc1 (centres unmarked) | 8.14
13 | COc1cc(-c2ccc(NC(C)=O)c(OC)c2)ccc1NC(C)=O | -2.32
14 | COc1ccc(Nc2nc3ccccc3nc2-n2nc(C)cc2C)cc1 | 2.07
15 | O=C(NCC1CCCO1)C1CCN(S(=O)(=O)c2cc(Cl)ccc2Cl)CC1 (centres unmarked) | -19
16 | CCOc1cc(C(=O)NN=C2CCCC2)cc(OCC)c1OCC | 23.6
17 | CCCN(CCC)CCCNC(=S)Nc1ccc2nc3n(c(=O)c2c1)CCCCC3 | 6.36
18 | CCCC1(c2ccccc2)NC(=O)N(CC(=O)Nc2ccccc2C(F)(F)F)C1=O (centres unmarked) | -28.3
19 | COC(=O)c1ccc(S(=O)(=O)N(C2CCCCC2)C2CCCCC2)n1C | 5.85
20 | COc1cc([N+](=O)[O-])ccc1-c1ccc(/C=N/NC(=O)OC(C)(C)C)o1 | 16.8
21 | COc1ccc2c(c1)C(=O)N(CCc1ccc(S(=O)(=O)NC(=O)NC3CCCCC3)cc1)C(=O)C2(C)C | -2.96
22 | O=C(Cn1ncc2c(=O)oc3ccccc3c21)NC1CC1 | 9.98

Row | SMILES | hERG current change (%, negative = inhibition) at 10uM [%]
23 | O=C(O)c1cc(N/N=C/c2cccnc2)ccc1Cl | -15.3
24 | COc1cccc(C(=O)COC(=O)C(C)N2C(=O)C3C4C=CC(C4)C3C2=O)c1 (centres unmarked) | -9.71
25 | O=C(O)c1c(F)c(F)c(F)c(F)c1-c1ccc(Cl)cc1 | 8.99
26 | COC(=O)C1=C(c2ccc3ccccc3c2)C[C@@H]2CC[C@H]1N2C(=O)N1CCOCC1 | 2.41
27 | O=C(O)CCC(=O)N1CCc2cc(S(=O)(=O)N3CCCCC3)ccc21 | 7.86
28 | COc1cc2c(cc1OC)CN(C1CC(=O)N(c3c(C)cccc3C)C1=O)CC2 (centres unmarked) | 17.1
29 | Cc1cc(=O)oc2cc(OCC(=O)NCc3ccncc3)ccc12 | -10.2
30 | CCCOc1cccc(C(=O)NC(=S)Nc2cccc(C(F)(F)F)c2)c1 | 15.1
31 | CCSc1nnc(-c2cc(Br)ccc2NC(C)=O)c(=O)[nH]1 | -20.2
32 | COc1cc(NC(=O)COC(=O)c2cc(S(=O)(=O)N3CCCCC3)ccc2Cl)c(C)cc1[N+](=O)[O-] | 2.66
33 | COc1cc2c(cc1OC)C(c1ccccc1)NC(C)(C)C2.Cl (centres unmarked) | 6.51
34 | COc1ccccc1NC(=O)CCN1C(=O)/C(=C\c2cc(OC)c(OC)c(OC)c2)SC1=S | 16.8
35 | COc1ccc(Cc2nc3ccc(C(=O)NC(C)Cc4ncccc4C)cc3o2)cc1OC (centres unmarked) | 2.69
36 | Cc1c(NC(=O)C(C)Sc2ccc3ccccc3n2)c(=O)n(-c2ccccc2)n1C (centres unmarked) | -8.22
37 | O=C(NCc1ccncc1)NC1CCCCC1 | 20.6
38 | C=CCN1C(=O)CN=C1Nc1ccccc1 | 20.4
39 | COCCCN1C(=O)C(O)=C(C(=O)c2ccco2)C1c1ccccc1 (centres unmarked) | 21.3
40 | Cc1cc(S(=O)(=O)Nc2c(C)nn(C)c2C)c(Cl)cc1Cl | 1.91
41 | CSCCC(Nc1nc2ccccc2s1)C(=O)O (centres unmarked) | 14.7
42 | C/C(=N/NC(=O)CN(c1ccccc1)S(=O)(=O)c1ccccc1)c1ccccc1O | -6.6
43 | COc1ccccc1N1CC(C(=O)NCCC2=CCCCC2)CC1=O (centres unmarked) | -2.65
44 | CCNC(=S)Nc1cc(OCC)c(NC(=O)c2cccs2)cc1OCC | 19.5
